Data as given in article PMC4336329 (PLoS ONE, 2015).
Out of some 310,000 compounds screened, about 14,000 (4.5%) showed an effect of 50% or more. The effect is printed as a negative number. The list shows a part of the results.

Target: human ether-à-go-go-related gene (hERG) potassium channel (human, UniProt Q12809)
Test: primary screen, population patch clamp on CHO cells stably expressing hERG
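Further: peak tail current of the secondary pulse compared with the same well before compound.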

human ether-à-go-go-related gene (hERG) potassium channel, sequence (Q12809 whole entry, looked up): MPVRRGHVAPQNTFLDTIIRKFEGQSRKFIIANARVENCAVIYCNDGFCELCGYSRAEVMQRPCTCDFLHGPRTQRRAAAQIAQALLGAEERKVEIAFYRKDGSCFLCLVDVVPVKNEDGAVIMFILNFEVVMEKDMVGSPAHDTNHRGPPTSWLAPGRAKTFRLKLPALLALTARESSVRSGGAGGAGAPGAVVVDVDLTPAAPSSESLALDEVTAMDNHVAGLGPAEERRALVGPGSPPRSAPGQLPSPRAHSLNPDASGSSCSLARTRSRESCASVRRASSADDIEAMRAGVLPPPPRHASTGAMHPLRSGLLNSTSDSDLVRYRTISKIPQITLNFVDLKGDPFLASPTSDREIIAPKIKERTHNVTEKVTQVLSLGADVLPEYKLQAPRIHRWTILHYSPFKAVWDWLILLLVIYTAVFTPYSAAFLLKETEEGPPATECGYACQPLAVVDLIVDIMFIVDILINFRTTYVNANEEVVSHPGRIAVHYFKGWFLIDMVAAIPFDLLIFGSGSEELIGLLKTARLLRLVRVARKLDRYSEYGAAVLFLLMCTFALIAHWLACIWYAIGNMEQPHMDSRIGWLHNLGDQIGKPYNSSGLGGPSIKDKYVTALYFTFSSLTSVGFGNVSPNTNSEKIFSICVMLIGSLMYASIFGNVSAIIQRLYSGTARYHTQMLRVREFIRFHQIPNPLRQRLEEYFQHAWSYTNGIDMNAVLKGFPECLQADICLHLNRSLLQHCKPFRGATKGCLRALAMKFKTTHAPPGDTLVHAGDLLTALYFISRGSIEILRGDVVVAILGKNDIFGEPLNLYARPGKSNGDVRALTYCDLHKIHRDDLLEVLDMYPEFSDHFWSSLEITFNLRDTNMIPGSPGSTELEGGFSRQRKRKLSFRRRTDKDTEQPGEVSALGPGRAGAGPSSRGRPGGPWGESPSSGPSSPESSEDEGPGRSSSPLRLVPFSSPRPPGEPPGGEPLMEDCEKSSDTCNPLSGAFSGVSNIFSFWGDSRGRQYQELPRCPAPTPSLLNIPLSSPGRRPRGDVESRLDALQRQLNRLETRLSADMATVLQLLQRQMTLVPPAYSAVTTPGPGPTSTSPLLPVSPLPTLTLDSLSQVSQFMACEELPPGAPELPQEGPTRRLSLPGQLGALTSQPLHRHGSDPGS

Structure (SMILES) | hERG current change (%, negative = inhibition) at 10uM [%]
CO[C@H]1C=CO[C@@]2(C)Oc3c(C)c(O)c4c(O)c(c(C=NN5CCN(C)CC5)c(O)c4c3C2=O)NC(=O)C(C)=CC=C[C@H](C)[C@H](O)[C@@H](C)[C@@H](O)[C@@H](C)[C@H](OC(C)=O)[C@@H]1C | -41.6
CC1CC(C)(C)NC(=S)N1CC(=O)NCc1ccc2c(c1)OCO2 (centres unmarked) | 1.92
O=C(NCC1CCCO1)c1ccc2c(c1)N(Cc1ccccc1)C(=O)CS2=O (centres unmarked) | -2.18
Cc1ccc(Cn2c(=O)n(C)c(=O)c3sccc32)cc1 | 6.76
Cc1cc(C)cc(NC(=O)CSc2nnc(-c3cc(C)[nH]n3)n2N)c1 | 12.5
Cc1ccc(C)c(N2CCN(C(=O)C3CCN(c4nc(C)cc(C)n4)CC3)CC2)c1 | -10.3
C=CCn1c(SCC(=O)N2CCOCC2)nc2sc3c(c2c1=O)CCCC3 | -53.9
O=C(NCc1cccnc1)c1cc2ccccc2oc1=O | -4.41
O=c1[nH]nc(SCc2nc3ccccc3s2)n1C1CC1 | 6.94
CSc1ncc(C(=O)Nc2cccc(Cl)c2)c(C)n1 | 10.9
S=C(NCC1CCCO1)Nc1cc(Cl)c(Cl)cc1Cl (centres unmarked) | 2.9
O=C(NCc1ccco1)c1cc(-c2ccc(F)cc2)on1 | 7.88
CCN(CC)CCCNC(=S)N1CCN(c2nc(-c3ccccc3)cs2)CC1 | -26.5
COc1ccc(CC(=O)NC(=S)Nc2cccc(C)c2)cc1 | 5.19
Cc1cccc(-c2nc(=S)c3c(o2)CCCC3)c1 | 0.759
O=[N+]([O-])c1ccc(COc2cccc3cccnc23)cc1 | -11.2
CCN(CC)CCNc1nc(-c2ccc(OC)cc2)c(-c2ccc(OC)cc2)s1 | -52.6
COC(=O)c1ccn(C(=O)c2ccc(Cl)cc2)n1 | 9.16
COc1ccccc1NC(=O)CC(=O)c1cccc([N+](=O)[O-])c1 | 6.64
CCOCCCN(C)C1CCN(C(=O)c2oc3ccccc3c2NC(=O)Cc2cccc([N+](=O)[O-])c2)CC1 | -75.3
CCCC(=O)N(c1ccc2oc(C)c(C(C)=O)c2c1)S(=O)(=O)c1ccc(C)c([N+](=O)[O-])c1 | 2.43
C/C(=N\NC(=O)c1cccc(S(=O)(=O)N2CCOCC2)c1)c1ccco1 | -4.41

Structure (SMILES) | hERG current change (%, negative = inhibition) at 10uM [%]
COC(=O)CCCCCN1C(=O)NC(C2CC2)C(C(=O)OCc2ccccc2)=C1C (centres unmarked) | -16.4
CCN(Cc1ccc(OC)c(F)c1)C(=O)c1cc2ccccc2o1 | -24.7
COc1cc(C(C)=O)ccc1OCc1nnc(-c2ccccc2Br)o1 | -17
CCCCc1c(CCC)c(=N)c2ccccc2n1C.I | -46
Cc1cc(=O)n2[nH]c(N3C(=O)CCC3=O)nc2n1 | 10.3
CC(=O)Nc1ccc(S(=O)(=O)NCCC(=O)OCC(=O)c2ccc(F)c(F)c2)cc1 | 11.3
Cc1nc(N2CCOCC2)[nH]c(=O)c1[N+](=O)[O-] | 16.7
COc1ccc(NC(=O)CO/N=C2\CCCc3nonc32)cc1 | -1.57
Cn1c(CNC(=O)c2ccc3c(c2)OCO3)nnc1SCC(=O)Nc1ccccc1F | 8.83
COC(=O)Cc1ccc(NC(=O)c2ccccc2Cl)cc1 | 18.6
N#Cc1c(-c2cccnc2)c2c([nH]c1=S)CCCC2 | 12.9
COc1ccc(NC(=O)c2cc3ccc4c5ccccc5[nH]c4c3cc2O)cc1 | 11.9
Cc1ccc(C(=O)OCC(=O)N2CC(=O)Nc3ccccc32)s1 | 15.5
O=C(O)CNc1nc(-c2ccccc2)nc2c1oc1ccccc12 | 9.72
Cc1ccc(Cl)cc1NC(=O)c1ocnc1C | 3.52
CCOc1ccc(NC(=O)c2ccncc2)cc1 | 20.9
Cc1ccc(S(=O)(=O)CC(=O)Nc2nc(C(C)(C)C)cs2)cc1 | -27
NC(=O)SCC(=O)Nc1ccccc1C(=O)O | 34.5
NC(=O)c1ccccc1NS(=O)(=O)c1ccc(S(=O)(=O)N2CCCC2)cc1 | 1.87
CCn1c(C(=O)Nc2ccsc2C(=O)OC)cc2sc(Cl)cc21 | 17.8
CC(Oc1ccc2ccccc2c1)C(=O)NNC(=O)Nc1ccccc1 (centres unmarked) | 19
CC(=O)Nc1cccc(OCCCNS(=O)(=O)c2ccc(F)cc2)c1 | -8.22

Structure (SMILES) | hERG current change (%, negative = inhibition) at 10uM [%]
O=C(COC(=O)C1CC2CCCC(C1)C2=O)Nc1cccc(F)c1 (centres unmarked) | -16.2
COc1cc(NC(=O)CSc2nccc(=O)[nH]2)c(C)cc1[N+](=O)[O-] | 5.29
O=C(CC1C(=O)NCCN1C(=O)Nc1ccccc1)Nc1cccc(Cl)c1 (centres unmarked) | -5.5
O=[N+]([O-])c1c(NCCCO)cc(SCc2ccco2)c2nonc12 | -23.9
CN1/C(=C\C(=O)Nc2ccc(Br)cc2)C(C)(C)c2ccccc21 | 1.65
Cc1nc(S/C(=C/c2ccc(-c3cccc(Cl)c3)o2)C(=O)O)n[nH]1 | 17.6
COc1ccc(CC(=O)Nc2c3c(nn2C(C)(C)C)CS(=O)(=O)C3)cc1 | 18.4
O=C(NCc1ccccn1)c1cccc(NS(=O)(=O)c2cccc(Cl)c2)c1 | 11.8
CC(Sc1nnc(-c2cccnc2)o1)C(=O)NC1CCCCC1 (centres unmarked) | 14.9
Cc1cc(Cl)cc(C)c1OCCOCCNCc1ccccc1.O=C(O)C(=O)O | -52.4
Cc1cc(NC(c2cccnc2)c2c(C)[nH]c3ccccc23)no1 (centres unmarked) | -0.873
CC(=O)Nc1cccc(-c2csc(Nc3cc(C)ccn3)n2)c1 | 8.87
Cl.NNc1nc(-c2ccccc2)cs1 | 29.7
O=C(NCC1CCCCC1)c1cc(S(=O)(=O)N2CCCCC2)ccc1Cl | -16.9
CC(C)c1ccc(N2C(=O)[C@@H]3Cc4ccccc4CN3C2=O)cc1 | 28.8
Fc1cccc(/C=N/Nc2ccc3ccccc3n2)c1 | 5.91
CCOC(=O)Cn1c(=O)c(C#N)cn(C(C)C)c1=O | 9.76
CCOC(=O)c1cnc2c(C)cc(C)cc2c1Nc1ccc(S(=O)(=O)Nc2ncccn2)cc1 | -0.317
CCOC(=O)C1=NN(c2ccc(C)cc2)CC1C(=O)OC (centres unmarked) | -2.11
Cc1ccsc1C(=O)NCc1ccccc1Cl | 16.9
Cc1ccnc(NC(=O)CCC(=O)N(CC(=O)NC2CCCCC2)c2cccc(C)c2C)c1 | 4.89
Cc1ccc2nc(SCC(=O)Nc3nnc(SCC(N)=O)s3)[nH]c2c1 | 8.22

Structure (SMILES) | hERG current change (%, negative = inhibition) at 10uM [%]
C=Cc1c(C)c2cc3[nH]c(cc4nc(cc5nc(cc1[nH]2)C(C)=C5CCC(=O)[O-])C(CCC(=O)[O-])=C4C)c(C)c3C=C.[Na+] | 15.4
CCC(CC)c1nnc(NC(=O)c2ccc(S(=O)(=O)N3CCc4ccccc4C3)cc2)s1 | 15.2
Cc1ccc2nc(SCC(=O)NCc3cccs3)c(C#N)cc2c1 | -4.38
O=P(OCC1CC1)(c1ccccc1)c1ccccc1 | 8.08
CCCC(O)(c1ccc(OC)cc1)C(CN(C)C)c1ccccc1 (centres unmarked) | -4.69
COc1ccc(CN2CCN(C(=O)Cn3ncn4cccc4c3=O)CC2)c(OC)c1OC | -0.055
COc1cc(NC(=O)c2c(-c3ccccc3Cl)noc2C)c2ncccc2c1 | 25.5
COc1cccc(C(=O)N2CCN(C(=O)C3COc4ccccc4O3)CC2)c1 (centres unmarked) | -19.5
Cc1cc(C)nc(/N=C(\N)Nc2ccc(C)c([N+](=O)[O-])c2)n1 | -5.32
CC(C)N1CCN(Cc2nc(-c3ccccc3)cs2)CC1CCO (centres unmarked) | -47.7
O=C(NCC1CCCO1)c1ccc(NC(=O)c2cccc([N+](=O)[O-])c2)cc1 (centres unmarked) | 3.68
CCOc1cc(C2NC(=O)NC(C)=C2C(=O)OC(C)CC)cc(Br)c1O (centres unmarked) | -5.51
COc1ccccc1CC(=O)Nc1cc(C)ccn1 | 11.2
COc1ccc(C)cc1S(=O)(=O)NCC(c1ccc2c(c1)OCO2)N1CCN(C)CC1 (centres unmarked) | -68.2
COc1ccc(CNC(N)=O)cc1OC | 0.126
COc1ccc(/C=N\NS(=O)(=O)c2ccc(Cl)cc2)cc1COc1ccccc1[N+](=O)[O-] | -16.6
O=C(O)C(=O)O.c1ccc(OCCN2CCN(C(c3ccccc3)c3ccccc3)CC2)cc1 | -14.6
CC(C)Oc1ccc(/C(O)=C2/C(=O)C(=O)N(Cc3cccnc3)C2c2ccco2)cc1 (centres unmarked) | 23.5
Cc1ccc2cc(/C=N/NC(=O)c3ccccc3[N+](=O)[O-])c(Cl)nc2c1 | -5.33
Cl.O=[N+]([O-])c1cccc(C2NCC(c3ccccc3Cl)c3c2[nH]c2ccccc32)c1 (centres unmarked) | 18.3
